T1: UNK ZnF1-3 (human, UniProt Q9C0B0 31-174)
T1 sequence: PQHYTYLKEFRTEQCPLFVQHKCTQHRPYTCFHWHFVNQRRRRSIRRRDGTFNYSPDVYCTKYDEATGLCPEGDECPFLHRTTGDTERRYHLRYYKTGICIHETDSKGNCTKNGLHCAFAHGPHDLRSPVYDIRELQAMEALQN

B1: chr11:79252212:79252213:+_ENSMUSG00000020716_ENSMUST00000071325|mus_mus|motif|central (ssRNA)
RNA: GGGAGUUCUACAGUCCGACGAUCAGUAGCAGACAUUUCACAUCCUACUCCAUAAAGGUAGAGAGAAUGACAGGAGCUUCGGUCUGCCUGCUUAUUUUUAAGAAGAAAUUUAUUUCUGCAGAUCAGAAUUUCCCGUAACCACUUCAACAGAGGAUUGAGCAUCA
B2: chr1:130485734:130485735:-_ENSMUSG00000045382_ENSMUST00000052172|mus_mus|mus_mus_mus_hu_False|68_68 (ssRNA)
RNA: GGGAGUUCUACAGUCCGACGAUCGAUGAAGGAGUCGAUGCUGAUCCCAAUGUAGUAAGGCAGCCAACAGGCAAAGAAAGCCAGGAUGAGGAUGACUGUGGUCUUGAGGGCCUUGCGCUUCUGGUGGCCCUUGGAGUGUGACAGCAACAGAGGAUUGAGCAUCA
B3: chr1:87369078:87369079:-_ENSG00000183291_ENST00000370554|hu_mus|FALSE|FALSE (ssRNA)
RNA: GGGAGUUCUACAGUCCGACGAUCCAGAUUAAACUGUCCAAGAAGAUCGCAAGAGCUGCAGAGCAAGUUGCUGGAGAAACCCAACUCUCUGCAUGCCUCUGACGCAAACUCUGCCCCCAGAGCAGACGCCGCUUGAAACGCAGUCAACAGAGGAUUGAGCAUCA
B4: 155408674_155408794_5690_CDS_ENSG00000116539_ENST00000392403|human|control|control (ssRNA)
RNA: GGGAGUUCUACAGUCCGACGAUCUCGGUCCUUGCUGUGGCUACGGCCUGGACUGGAAGAAGGUGGUGCAGAGGCAGUUGCAAUCACAGCAUCAAUACUUUUCUCCAUGGGCUCUUGGUCCUCAUUUUGUACCAUCCGCUGCAGCAACAGAGGAUUGAGCAUCA
B5: chr7:125879632:125879633:+_ENSMUSG00000033904_ENSMUST00000106557|mus_hu|FALSE|FALSE (ssRNA)
RNA: GGGAGUUCUACAGUCCGACGAUCGCAAUAUUCUUAUCCGGAAAUCUGGAUUUAUUAUUAUAUAGCCCUUUAUUCUCUCCUAAAUCAAGCAUGCUAGAAAAAACAGACUAUGAAGAACAAAAUAUACAGACUAAAUAGAAAAUACAACAGAGGAUUGAGCAUCA
B6: chr19:16212804:16212805:+_ENSG00000167460_ENST00000300933|hu_mus|FALSE|FALSE (ssRNA)
RNA: GGGAGUUCUACAGUCCGACGAUCAACAAUUCUGGAGUGAAGGAAAGAUGUAACAUGGAACAGCAUUAAAGCUCAGUCAGAAGGCACAUGGGCAACAAUGAUCACCCCAGCAUUCUCGCUUGGAAUGCUUAAAGACAAUCUGUUCAACAGAGGAUUGAGCAUCA
B7: 84417517_84417637_166_CDS_ENSG00000065609_ENST00000520302|human|control|control (ssRNA)
RNA: GGGAGUUCUACAGUCCGACGAUCGUCCAGGUGCUUUUUCUUGGGGCCCAUUACUUCAUGAGUAGUGGCUUUGCAGACCGCUCUUGCUACAGCAGAGCCUGUAACGCUGUACUGAGCGGCGGCGAUCCGAUCCGUGAGCGUUUGCAACAGAGGAUUGAGCAUCA
B8: chr17:61655871:61655872:+_ENSG00000136485_ENST00000310827|hu_hu|motif|central (ssRNA)
RNA: GGGAGUUCUACAGUCCGACGAUCGGUGGGGUAUGGGUGGUCAAAGGUGUUUCUGCAAAUAAACUCUGAACUCUCCUCAUCGGAACCAACAAGCUGAACCUUGUUGUUGUACUCCUCCACGAAGCUGCCCAGCGCCAAGCGAAACAACAGAGGAUUGAGCAUCA
B9: chr3:55862657:55862658:-_ENSMUSG00000027799_ENSMUST00000029374|mus_hu|motif|central (ssRNA)
RNA: GGGAGUUCUACAGUCCGACGAUCUGAUGAUUCCAGGCAGAGCUGAGCAUCAGUGGCCUUAGCAUUAUAUGUAAAGGCAAUGCGGCUUGCAAGUUUCCCAUCAUAUAACACCUGUUUAUGAUGUUCUGCCAAAUGAAUAUCACUCAACAGAGGAUUGAGCAUCA
B10: 60582714_60582834_601_CDS_ENSMUSG00000026014_ENSMUST00000140485|mouse|control|control (ssRNA)
RNA: GGGAGUUCUACAGUCCGACGAUCGGAGUAGUUAGCAUGGGAAGGUUUAGUUGUUCUAUUAGAGGAAGAUGACGGUCCUCUCAGGGUGCCAUGUUUUGACGUAUGUCGGCCAGCAGGUAGCUUCUGAGGAACUUUUGGUUCUGUCAACAGAGGAUUGAGCAUCA
B11: 79826845_79826965_588_CDS_ENSMUSG00000043881_ENSMUST00000061222|mouse|control|control (ssRNA)
RNA: GGGAGUUCUACAGUCCGACGAUCGCGCUGCACGUUGGCCUCGCUGAGCGACACGCGACCAGUGUAGCAGUAGUCCACCAAGACCUCGAAGGACUCGGCAUCCACGUCGUGGAUCGUCACGCUGGCCUGCUGGCUCUCGUACAUCAACAGAGGAUUGAGCAUCA
B12: chr8:73998637:73998638:+_ENSMUSG00000074247_ENSMUST00000124745|mus_mus|FALSE|FALSE (ssRNA)
RNA: GGGAGUUCUACAGUCCGACGAUCGCUUGACACGAGUUACAGCAUAAAUAAAAACUCAAGGAAAAUAAAUACAUGGAUCCUAUGCGGUUGGAGGGCGCGGGCUGGAUGUAGGAGGCGGGCCGCGCUUACACACGCGGGUGGGAGCAACAGAGGAUUGAGCAUCA
B13: chr6:41757443:41757444:+_ENSG00000214736_ENST00000398881|hu_mus|hu_hu_hu_mus_False|68_78 (ssRNA)
RNA: GGGAGUUCUACAGUCCGACGAUCGAACCGUGCAGAGGCAACAUCUCAGCCGACACUGUGGACUCAAGGAACAAAAGGGGGGGGUUCAGGCAAGGAGAGGGAGUCAACUUCAGCUGCCACUCAGGUAGGAUCUUGUGGUCACAGCAACAGAGGAUUGAGCAUCA
B14: chr4:115894766:115894767:+_ENSMUSG00000028698_ENSMUST00000030464|mus_hu|mus_mus_mus_hu_True|1_58 (ssRNA)
RNA: GGGAGUUCUACAGUCCGACGAUCUUCCACACGGAAAUGUACUUCGGGUUUUCCAACGGCCAGUACCAGUCCGGCCAACUACUAGGAACAGGGUCCUCCCCCUCUCUCCUACAGAACACAACAAAAUGCCCCCGAACCCCGAACCAACAGAGGAUUGAGCAUCA
B15: chr6:38652254:38652255:-_ENSG00000124767_ENST00000373365|hu_hu|hu_hu_hu_mus_False|28_98 (ssRNA)
RNA: GGGAGUUCUACAGUCCGACGAUCCGAGAACUUCAUAAUGGGAAAAUCAAGCUUCUGCAGGAGGGUCAGUCCAAGAACCCUCGUAUAAAAAUCCAGGGACUUCUUAGGAUCCUUCACUCUUAGCAUCGUUUGCUGCAGUAGAAACAACAGAGGAUUGAGCAUCA
B16: chr16:94664741:94664742:+_ENSMUSG00000040785_ENSMUST00000117648|mus_hu|mus_mus_mus_hu_False|48_88 (ssRNA)
RNA: GGGAGUUCUACAGUCCGACGAUCUGGUACUGAUCUUGGUAGCUGAUACUCAGAAGAAAGGCUGGCCAAGGGUGUAUAUAUGCUGGUGAACUGCGACAAACCUGGUAACACGUUUAUGUAUGCUGGCGGUGUCUGGGUGAUAUCCAACAGAGGAUUGAGCAUCA
B17: 20884589_20885242_1168_3pUTR_ENSMUSG00000010205_ENSMUST00000115487|mouse|control|control (ssRNA)
RNA: GGGAGUUCUACAGUCCGACGAUCGGUGAGUCGCCCAGGAUCCCAGGCUUCUUCUGACCCUGGCUCUGGUUCUGGCUCUGGCUCUGCAGGGCUAGCUGCAGCAGUGCAGUGGACAGGGCAGGCCCGCUGAGCAGUGGCAUAGCACAACAGAGGAUUGAGCAUCA
B18: chr5:125368827:125368828:+_ENSMUSG00000079215_ENSMUST00000111417|mus_hu|motif|central (ssRNA)
RNA: GGGAGUUCUACAGUCCGACGAUCUAGCUUCAAAAGGGUUAGUCAUAUUCCCCAGCAACAGCAUGAUAAAAUAAUUCAACGGUGUAGAAAUAUAGAACUCUAGGACUAGCUGGAAACUCGGAAAUCAUUUAGCCUAAUGUUCUCCAACAGAGGAUUGAGCAUCA
B19: chr6:31620082:31620083:-_ENSG00000204463_ENST00000375976|hu_mus|FALSE|FALSE (ssRNA)
RNA: GGGAGUUCUACAGUCCGACGAUCGACCGCCCCCGCCUUCCGCCUCCGCCUCUCCUCGGUAUUCCAGCAACACGACUUAACCAACACGCGACCAAACACAUACAAACACACAUACACAGCCCACCACCCUGUGGCUCCGCCCCCCAACAGAGGAUUGAGCAUCA
B20: chr5:76988818:76988819:+_ENSMUSG00000036435_ENSMUST00000113493|mus_mus|FALSE|FALSE (ssRNA)
RNA: GGGAGUUCUACAGUCCGACGAUCUCCAUCCAGGUCUUCUGCUUCAGUCAUUGAUGCAGACAUGUUUUGAUGCUGCUGUAGUUUGAAAAAUUUACUUAUGAAGUCCUGUUCUGCCAGACACAGUGGCUCCAGUUCACUCAGCACCAACAGAGGAUUGAGCAUCA
B21: chr7:44609470:44609471:-_ENSG00000136271_ENST00000433257|hu_hu|motif|central (ssRNA)
RNA: GGGAGUUCUACAGUCCGACGAUCAGCUCCUCAAUCUUGCCUAAGUGGAACUGCUCCGUGGGAAGCACAAAGGUUAAGACGGUGCCUGGGUUGUUAGCGCGUGCUGUCCUGCCAGCUCGAUGGAUGUAGGCCUCAGGGGUUGGGCAACAGAGGAUUGAGCAUCA
B22: chr4:126583341:126583342:-_ENSMUSG00000042446_ENSMUST00000135003|mus_hu|FALSE|FALSE (ssRNA)
RNA: GGGAGUUCUACAGUCCGACGAUCUCCUCCGGCUGACACUGUGGAACCUGUGGGGAUGCUUACAAUUACUUGGCCCUGAGACAAGGGCACUACUGAAGAAUUCAUUCCAGUUGGUUUGUUGAAUAAAUUCUGGAAAGCUACCACCAACAGAGGAUUGAGCAUCA

In publication PMC12136788 one finds binding signal data, which are given here for 22 molecules.

This is one part of the list.

This experiment has as its target T1, UNK ZnF1-3. In words: nsRBNS (natural sequence RNA bind-n-seq); RBNS binding buffer (assumed for nsRBNS): 25 mM Tris pH 7.5, 150 mM KCl, 3 mM MgCl2, 0.01% Triton X-100, 500 ug/ml BSA, 20 U/ml SUPERase-In, 4 C; UNK is unkempt and MSI1 is Musashi-1; names of the RNAs are library labels; protein concentration not given here; high values mean tight binding.
The molecule B1 displayed a binding signal of 0.983 enrichment R.

On to B2, for which the binding signal stood at 1.33 enrichment R.

Molecule B3 showed a binding signal of 0.762 enrichment R.

In the case of B4, the binding signal was 1.04 enrichment R.

Molecule B5 gave a binding signal of 3.18 enrichment R.

Consider B6, for which the binding signal was found to be 1.2 enrichment R.

Molecule B7 came in with a binding signal of 0.552 enrichment R.

The molecule B8 registered a binding signal of 1.03 enrichment R.

In turn, B9 showed a binding signal of 0.9 enrichment R.

For the molecule B10, the binding signal was 0.94 enrichment R.

Turning to B11, the binding signal was determined as 0.537 enrichment R.

B12 registered a binding signal of 2.04 enrichment R.

In the case of B13, the binding signal was determined as 2.06 enrichment R.

In turn, B14 gave a binding signal of 1.06 enrichment R.

On to B15, for which the binding signal was 0.715 enrichment R.

The molecule B16 gave a binding signal of 1.15 enrichment R.

With B17, the binding signal is 0.935 enrichment R.

B18 yielded a binding signal of 1.46 enrichment R.

In turn, B19 showed a binding signal of 1.8 enrichment R.

On to B20, for which the binding signal came out at 1.08 enrichment R.

B21 displayed a binding signal of 1.69 enrichment R.

As to B22, the binding signal came out at 0.988 enrichment R.
